Source: patent US20230277505A1 (Arena Pharmaceuticals, Inc., priority 2003, published 2023)

Columns and labels:
5-HT2A = 5-HT2A (Homo sapiens, UniProt P28223); assay: IP3 Accumulation Assay; assay type: cell-based; details: averages of at least two trials
Description: For the IP3 accumulation assay, a transfection protocol different from the protocol set forth in Example 3 was utilized. In the following example, the protocols used for days 1-3 were slightly different for the data generated for FIGS. 12 and 14 and for FIGS. 13 and 15; the protocol for day 4 was the same for all conditions.
On day one, COS-7 cells or 293 cells were plated onto 24 well plates, usually 1×10^5 cells/well or 2×10^5 cells/well, respectively. On day two, the cells were transfected by first mixing 0.25 ug DNA (see Example 3) in 50 μl serum-free DMEM/well and then 2 μl lipofectamine in 50 μl serum-free DMEM/well. The solutions (“transfection media”) were gently mixed and incubated for 15-30 minutes at room temperature. The cells were washed with 0.5 ml PBS and then 400 μl of serum free media was mixed with the transfection media and added to the cells. The cells were then incubated for 3-4 hours at 37° C./5% CO2. Then the transfection media was removed and replaced with 1 ml/well of regular growth media. On day 3, the media was removed and the cells were washed with 5 ml PBS followed by aspiration. Then 2 ml of trypsin (0.05%) is added per plate. After 20-30 seconds, warm 293 media is added to plates, cells are gently resuspended, and cells are counted. Then a total of 55,000 cells are added to sterile poly-D-lysine treated 96 well microtiter plates and cells are allowed to attach over a six-hour incubation in an incubator. Then media is aspirated and 0.1 mL inositol-free/serum-free media (GIBCO BRL) was added to each well with 0.25 μCi of ^3H-myo-inositol/well and the cells were incubated for 16-18 hours overnight at 37° C./5% CO2. Protocol A.
On day one, 13×10^6 293 cells per 150 mm plate were plated out. On day two, 2 ml of serum OptimemI (Invitrogen Corporation) is added per plate followed by addition of 60 μL of lipofectamine and 16 μg of cDNA. Note that lipofectamine must be added to the OptimemI and mixed well before addition of cDNA. While complexes between lipofectamine and the cDNA are forming, media is carefully aspirated and cells are gently rinsed with 5 ml of OptimemI media followed by careful aspiration. Then 12 ml of OptimemI is added to each plate and 2 ml of transfection solution is added followed by a 5 hour incubation at 37° C. in a 5% CO2 incubator. Plates are then carefully aspirated and 25 mL of Complete Media are added to each plate and cells are then incubated until used. On day 3, cells are trypsinized with 2 ml of 0.05% trypsin for 20-30 seconds followed by addition of 10 mL of warmed media, gently triturated to dissociate cells, and then 13 additional ml of warmed media is gently added. Cells are then counted and then 55,000 cells are added to 96-well sterile poly-D-lysine trated plates. Cells are allowed to attach over a six hour incubation at 37° C. in a 5% CO2 incubator. Media is then carefully aspirated and 100 μL of warm inositol-free media plus 0.5 μCi ^3H-inositol is added to each well and the plates are incubated for 18-20 hours at 37° C. in a 5% CO2 incubator.
On day 4, media is carefully aspirated and then 0.1 ml of assay medium is added containing inositol-free/serum free media, 10 μM pargyline, 10 mM lithium chloride, and test compound at indicated concentrations. The plates were then incubated for three hours at 37° C. and then wells are carefully aspirated. Then 200 μL of ice-cold 0.1 M formic acid is added to each well. Plates can then be frozen at this point at −80° C. until further processed. […]

[1] = test system: DOI-induced hypolocomotion in rats; assay: Attenuation of DOI-induced hypolocomotion in rats; assay type: in vivo, rat; details: 50 μmol/kg p.o. 60 min before DOI 0.3 mg/kg s.c.
Description: In this example, compounds of the invention, such as Compound 1 and Compound 26, were tested for inverse agonist activity by determining whether these compounds could attenuate DOI-induced hypolocomotion in rats in a novel environment. DOI is a potent 5HT2A/2C receptor agonist that crosses the blood-brain barrier.
Male Sprague-Dawley rats (Harlan, San Diego, Calif.) weighing between 200-300 g were used for all tests. Rats were housed three to four per cage. These rats were naïve to experimental testing and drug treatment. Rats were handled one to three days before testing to acclimate them to experimental manipulation. Rats were fasted overnight prior to testing.
(R)-DOI HCl (C11H16INO2·HCl) was obtained from Sigma-Aldrich, and was dissolved in 0.9% saline. Compounds of the invention were synthesized at Arena Pharmaceuticals Inc. and were dissolved in 100% PEG400. […]
The “Motor Monitor” (Hamilton-Kinder, Poway, Calif.) was used for all activity measurement. This apparatus recorded rears using infrared photobeams. […]
In determining the effects of compounds of the invention on DOI-induced hypoactivity, animals were first injected with vehicle or the compound of the invention (50 μmol/kg) in their home cages. […] 10 min after DOI administration, animals were placed into the activity apparatus and rearing activity was measured for 10 minutes.
Results (total rears over 10 minutes) were analyzed by t-test. […]

male Wistar rats = assay: Effect on delta power, sleep and wakefulness in rats (EEG/EMG); assay type: in vivo, rat; details: oral gavage, Compound 1 1.0 mg/kg, Compound 26 1.4 mg/kg
Description: In this example, the effect of Compounds of the Invention, such as Compound 1 and Compound 26, on sleep and wakefulness was compared to the reference drug zolpidem. Drugs were administered during the middle of the light period (inactivity period).
Briefly, four compounds of the invention, including Compound 1 (1.0 mg/kg) and Compound 26 (1.4 mg/kg), were tested for their effects on sleep parameters and were compared to zolpidem (5.0 mg/kg, Sigma, St. Louis, Mo.) and vehicle control (80% Tween 80, Sigma, St. Louis, Mo.). A repeated measures design was employed in which each rat was to receive seven separate dosings via oral gavage. […] Following each dosing, animals were continuously recorded until lights out the following day (˜30 hours).
Animals were housed in a temperature controlled recording room under a 12/12 light/dark cycle (lights on at 7:00 am) and had food and water available ad libitum. Room temperature (24+2° C.), humidity (50+20% relative humidity) and lighting conditions were monitored continuously via computer. […]
EEG and EMG data were scored visually in 10 second epochs for waking (W), REMS, NREMS. Scored data were analyzed and expressed as time spent in each state per half hour. Sleep bout length and number of bouts for each state were calculated in hourly bins. […]

[2] = molecular target: endogenous human 5-HT2C receptor (Homo sapiens (Human), UniProt P28335)
5HT2A receptor = 5HT2A receptor (Rattus norvegicus (Rat), UniProt P14842); assay: 125I-LSD displacement from brain sections (autoradiography), cortex; assay type: binding, Sprague-Dawley rats; details: 1 micromolar compound, 1 nanomolar 125I-LSD
Chain of UniProt P14842 (P14842 whole entry): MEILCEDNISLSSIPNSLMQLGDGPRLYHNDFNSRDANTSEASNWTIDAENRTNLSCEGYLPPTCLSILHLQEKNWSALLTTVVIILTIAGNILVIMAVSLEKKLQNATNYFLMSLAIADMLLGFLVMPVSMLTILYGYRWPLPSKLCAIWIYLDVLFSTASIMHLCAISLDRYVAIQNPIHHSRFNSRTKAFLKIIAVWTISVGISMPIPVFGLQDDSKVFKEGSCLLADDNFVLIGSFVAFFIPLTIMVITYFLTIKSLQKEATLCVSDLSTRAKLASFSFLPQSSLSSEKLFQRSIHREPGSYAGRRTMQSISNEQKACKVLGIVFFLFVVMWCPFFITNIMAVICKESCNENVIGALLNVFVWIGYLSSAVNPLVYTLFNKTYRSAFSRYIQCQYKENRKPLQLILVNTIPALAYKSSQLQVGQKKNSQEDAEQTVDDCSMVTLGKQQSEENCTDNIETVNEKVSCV

dopamine D2 receptor = dopamine D2 receptor (Rattus norvegicus (Rat), UniProt P61169); assay: 125I-LSD displacement from brain sections (autoradiography), caudate; assay type: binding, Sprague-Dawley rats; details: 1 micromolar compound, 1 nanomolar 125I-LSD
Chain of UniProt P61169 (P61169 whole entry, looked up): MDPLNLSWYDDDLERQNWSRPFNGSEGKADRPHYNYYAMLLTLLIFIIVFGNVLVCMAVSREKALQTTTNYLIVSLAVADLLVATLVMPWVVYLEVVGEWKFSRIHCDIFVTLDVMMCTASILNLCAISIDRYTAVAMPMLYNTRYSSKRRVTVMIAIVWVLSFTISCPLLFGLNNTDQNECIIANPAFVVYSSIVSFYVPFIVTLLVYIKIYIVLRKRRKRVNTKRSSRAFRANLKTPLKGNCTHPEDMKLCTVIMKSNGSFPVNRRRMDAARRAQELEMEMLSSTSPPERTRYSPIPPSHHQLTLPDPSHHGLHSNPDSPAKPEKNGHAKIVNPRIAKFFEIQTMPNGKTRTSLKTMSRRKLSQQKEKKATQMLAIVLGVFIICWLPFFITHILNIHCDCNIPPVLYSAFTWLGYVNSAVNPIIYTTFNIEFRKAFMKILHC

Chain of UniProt P28223 (P28223 whole entry, looked up): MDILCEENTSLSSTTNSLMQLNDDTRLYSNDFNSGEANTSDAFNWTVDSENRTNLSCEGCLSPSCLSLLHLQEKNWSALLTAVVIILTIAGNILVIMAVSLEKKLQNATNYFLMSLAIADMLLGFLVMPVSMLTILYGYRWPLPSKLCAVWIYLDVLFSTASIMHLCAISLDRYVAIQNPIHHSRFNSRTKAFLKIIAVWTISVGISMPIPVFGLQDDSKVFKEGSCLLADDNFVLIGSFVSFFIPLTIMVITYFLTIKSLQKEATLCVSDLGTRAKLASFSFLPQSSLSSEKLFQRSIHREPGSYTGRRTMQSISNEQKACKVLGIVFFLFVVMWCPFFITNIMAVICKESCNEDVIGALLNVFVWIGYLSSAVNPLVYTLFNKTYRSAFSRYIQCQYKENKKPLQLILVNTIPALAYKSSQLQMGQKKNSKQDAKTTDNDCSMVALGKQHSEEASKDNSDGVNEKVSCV

CC(C)Oc1ccc(NC(=O)Nc2ccc(F)cc2)cc1-c1c(Br)cnn1C [Compound 60, 1-[3-(4-Bromo-2-methyl-2H-pyrazol-3-yl)-4-isopropoxy-phenyl]-3-(4-fluoro-phenyl)-urea]
IC50 (5-HT2A): 1.1 nM

Cn1ncc(Br)c1-c1cc(NC(=O)Nc2ccc(Cl)cc2)ccc1OCc1ccccc1 [Compound 61, 1-[4-Benzyloxy-3-(4-bromo-2-methyl-2H-pyrazol-3-yl)-phenyl]-3-(4-Chloro-phenyl)-urea]
IC50 (5-HT2A): 8.57 nM

COc1ccc(NC(=O)Nc2ccc(Cl)cc2)cc1-c1c(Cl)cnn1C [Compound 26, 1-[3-(4-Chloro-2-methyl-2H-pyrazol-3-yl)-4-methoxy-phenyl]-3-(4-Chloro-phenyl)-urea]
DOI-induced hypolocomotion (total rears over 10 minutes) [1]: attenuated DOI-induced hypolocomotion | REMS bout length (male Wistar rats; fourth hour): significantly increased | delta power during NREMS (male Wistar rats; second hour following dosing (15:00), vs vehicle): significantly increased

CN1CCN2c3ccccc3Cc3ccccc3C2C1 (centres unmarked) [mianserin]
inhibition of serotonin-stimulated [35S]GTPγS binding ([2]; 30 μM): completely inhibited | basal constitutive binding of [35S]GTPγS ([2]; membranes expressing the endogenous human 5-HT2C receptor): partial inverse agonist

COc1ccc(NC(=O)Nc2ccc(Cl)cc2C(F)(F)F)cc1-c1c(Cl)cnn1C [Compound 79, 1-[3-(4-Chloro-2-methyl-2H-pyrazol-3-yl)-4-methoxy-phenyl]-3-(4-chloro-2-trifluoromethyl-phenyl)-urea]
IC50 (5-HT2A): 13 nM

O=C(CCCN1CCC2(CC1)C(=O)NCN2c1ccccc1)c1ccc(F)cc1 [spiperone, reference compound]
displacement of 125I-LSD from the cortex (5HT2A) (5HT2A receptor): displaces | displacement of 125I-LSD from the caudate (dopamine D2) (dopamine D2 receptor): displaces

COc1ccc(OC(=O)Nc2cccc(-c3c(Br)cnn3C)c2)cc1 [Compound S-1610, [3-(4-Bromo-2-methyl-2H-pyrazol-3-yl)-phenyl]-carbamic acid 4-methoxy-phenyl ester]
displacement of 125I-LSD from the cortex (5HT2A) (5HT2A receptor): appears to selectively displace | displacement of 125I-LSD from the caudate (dopamine D2) (dopamine D2 receptor): not the caudate

COc1ccc(NC(=O)Nc2cccc(Cl)c2)cc1-c1c(Br)cnn1C [Compound 20, 1-[3-(4-Bromo-2-methyl-2H-pyrazol-3-yl)-4-methoxy-phenyl]-3-(3Chloro-phenyl)-urea]
IC50 (5-HT2A): 0.45 nM

COc1ccc(NC(=O)Nc2ccc(Cl)c(C(F)(F)F)c2)cc1-c1c(F)cnn1C [Compound 84, 1-(4-Chloro-3-trifluoromethyl-phenyl)-3-[3-(4-fluoro-2-methyl-2H-pyrazol-3-yl)-4-methoxy-phenyl]-urea]
IC50 (5-HT2A): 12.2 nM
